Source: article PMC5836133
The list shows a part of the results. At the low end of the ranking, values are background and their order means little.

Tested on: T1, GST-NbGlk1(82-244)
T1 sequence: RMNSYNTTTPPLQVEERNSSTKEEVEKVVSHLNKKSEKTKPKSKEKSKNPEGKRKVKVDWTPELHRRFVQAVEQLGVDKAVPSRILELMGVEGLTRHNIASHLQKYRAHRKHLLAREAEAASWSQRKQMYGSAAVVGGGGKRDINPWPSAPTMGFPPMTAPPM
Experiment: protein-binding microarray;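 also: rank-based score ranging −0.5 to +0.5 with E above 0.45 taken as significant binding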
Details: NbGlk1 is a Golden2-like transcription factor of Nicotiana benthamiana; high values mean tight binding; most listed sequences are background and not binding sites; double strand, one strand shown

Sequence | binding signal
ATGCTTGG | -0.0554 E-score
AGCGTTCC | -0.21 E-score
AACGCACT | -0.0501 E-score
AAGTTCGG | -0.121 E-score
AGGTGGAA | -0.0781 E-score
AGCCTCCC | -0.373 E-score
ATACCATG | -0.0243 E-score
ACTGAGCA | -0.258 E-score
AATGGTTC | -0.114 E-score
ACATAAAG | -0.0579 E-score
AAATTTAG | 0.156 E-score
ACAGGGCG | -0.109 E-score
AGGCTCCC | -0.377 E-score
AGAGGATA | 0.25 E-score
ACGGTCCC | -0.203 E-score
CAACGCAG | -0.114 E-score
ACTGCTAG | -0.144 E-score
AAATGTTG | 0.0646 E-score
ACTGCCAA | -0.109 E-score
AGTCATCA | -0.124 E-score
ATCTCCAC | 0.333 E-score
AACCGAAT | 0.234 E-score

Sequence | binding signal
ACGGCTGA | -0.113 E-score
AAACAAAC | -0.0556 E-score
CAGACCAG | -0.215 E-score
ATAGCGAT | 0.247 E-score
AACAGAAC | -0.131 E-score
ACTGCAGG | -0.206 E-score
CAACCCCG | -0.133 E-score
ATAAGTGA | -0.00284 E-score
ATAAAAAG | 0.0893 E-score
AGACCGCC | -0.335 E-score
AGAAATCC | 0.464 E-score
AATACTCC | 0.0475 E-score
ATTAGATC | 0.148 E-score
AGCAGCTG | -0.208 E-score
AACAACAA | 0.0309 E-score
ATGCTATC | -0.0253 E-score
AGTGAAGG | -0.287 E-score
CAAGCGTA | -0.181 E-score
ATCAACCA | 0.0452 E-score
ATCACTGG | 0.0924 E-score
CAATAGCA | 0.066 E-score
AACCGTCG | -0.0721 E-score

Sequence | binding signal
ACCCCTCA | -0.119 E-score
AATTCTCG | 0.184 E-score
ATCTGCCG | 0.186 E-score
ATCGATCA | 0.171 E-score
AGTATAAC | 0.146 E-score
AGAACCAT | -0.166 E-score
AGAGTAGA | 0.0572 E-score
AAGCCGAG | -0.144 E-score
AAATGTAT | 0.00686 E-score
AGCTATCG | -0.0577 E-score
CAAAGGAC | 0.0477 E-score
CAAGACGA | 0.0676 E-score
AGACAGGC | -0.196 E-score
AAACGTGA | 0.0299 E-score
ATAGAACG | -0.0128 E-score
CAATCCAG | 0.291 E-score
CACAGCAC | -0.0956 E-score
ACAGAACC | -0.175 E-score
AAGTGGGC | -0.197 E-score
AGTGGTCA | -0.142 E-score
AATAGTAC | -0.0706 E-score
AAATGGGT | -0.0459 E-score

Sequence | binding signal
ATGCGTGC | -0.18 E-score
ACGGGGCC | -0.185 E-score
ACCGTGAA | -0.0604 E-score
ACTGCAAA | 0.0844 E-score
ACAGGACT | -0.224 E-score
AACCGCTA | -0.177 E-score
AGGGACGA | -0.105 E-score
AAGAAGAA | -0.13 E-score
ACACTGGT | -0.207 E-score
AGTAATTG | 0.116 E-score
ATGCTGGC | -0.117 E-score
AACCCATA | -0.0349 E-score
ACTACCCT | -0.146 E-score
ATTAAACA | 0.0281 E-score
ATTGTAAC | 0.0822 E-score
ACCGCGAG | -0.21 E-score
AATAAATA | 0.209 E-score
CACGACTA | -0.135 E-score
CACTAGGC | -0.172 E-score
AGTCGCCC | -0.324 E-score
